Measurements taken from paper PMC4336329 (PLoS ONE, 2015).
In all, about 310,000 compounds went through this assay and about 2,200 (0.71%) showed an effect of 50% or more. The effect is printed as a negative number. Some of the results follow.

target: human ether-à-go-go-related gene (hERG) potassium channel (human, UniProt Q12809); assay: primary screen, population patch clamp on CHO cells stably expressing hERG
Sequence (Q12809 whole entry, looked up): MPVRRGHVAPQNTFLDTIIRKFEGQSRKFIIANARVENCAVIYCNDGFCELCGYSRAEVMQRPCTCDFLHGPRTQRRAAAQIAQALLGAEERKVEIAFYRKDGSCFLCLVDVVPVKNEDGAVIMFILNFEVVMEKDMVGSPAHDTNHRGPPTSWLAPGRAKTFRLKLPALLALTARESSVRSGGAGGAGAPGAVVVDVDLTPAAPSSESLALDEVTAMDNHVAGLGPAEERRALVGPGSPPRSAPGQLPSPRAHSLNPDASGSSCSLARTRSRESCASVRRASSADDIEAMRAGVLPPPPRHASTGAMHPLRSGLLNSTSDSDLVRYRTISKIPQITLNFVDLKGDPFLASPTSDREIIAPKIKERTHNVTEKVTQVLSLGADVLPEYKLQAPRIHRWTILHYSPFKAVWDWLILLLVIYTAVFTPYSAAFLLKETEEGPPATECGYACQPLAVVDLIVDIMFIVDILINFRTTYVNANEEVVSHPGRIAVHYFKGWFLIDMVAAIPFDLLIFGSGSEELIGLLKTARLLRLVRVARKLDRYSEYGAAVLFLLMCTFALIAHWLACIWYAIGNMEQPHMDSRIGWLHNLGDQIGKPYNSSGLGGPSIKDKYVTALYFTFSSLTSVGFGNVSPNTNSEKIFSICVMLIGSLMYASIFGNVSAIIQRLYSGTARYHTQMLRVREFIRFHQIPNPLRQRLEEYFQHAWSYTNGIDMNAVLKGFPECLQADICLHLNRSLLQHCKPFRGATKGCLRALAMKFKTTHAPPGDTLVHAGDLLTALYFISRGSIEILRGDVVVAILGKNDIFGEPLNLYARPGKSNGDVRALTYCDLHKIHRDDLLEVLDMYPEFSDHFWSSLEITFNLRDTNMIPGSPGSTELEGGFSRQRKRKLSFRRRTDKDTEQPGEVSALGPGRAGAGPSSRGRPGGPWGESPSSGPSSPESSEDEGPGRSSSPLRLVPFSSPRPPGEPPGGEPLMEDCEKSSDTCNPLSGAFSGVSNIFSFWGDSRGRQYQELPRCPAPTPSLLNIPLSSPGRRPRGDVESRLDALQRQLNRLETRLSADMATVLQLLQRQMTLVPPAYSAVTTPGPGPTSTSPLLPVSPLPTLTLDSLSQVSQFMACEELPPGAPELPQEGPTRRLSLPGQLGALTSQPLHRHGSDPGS

Structure (SMILES) | hERG current change (%, negative = inhibition) at 1uM [%]
O=C(CSCc1ccccc1Cl)N1CCN(c2ccccn2)CC1 | 7
Cc1nnsc1S(=O)c1ccc(Cl)cc1 (stereo not drawn) | 13.3
Cc1c(C(=O)N2CCCCC2)sc(NC(=O)C(C)C)c1C#N | 5.08
COc1cc(CC(=O)Nc2ccc(S(=O)(=O)NC3=NCCCCC3)cc2)cc(OC)c1OC | 2.89
O=C(c1ccccc1Cl)N(Cc1ccc(Cl)c(Cl)c1)N1C(=O)CCCC1=O | 13.1
CSCCOC(=O)COc1ccc(/C=N/NC(=O)c2nn(C)cc2Cl)cc1 | -3.09
CCCNC(=O)c1ccc(N2CCC3(CC2)CC(c2ccccc2)=NO3)c(N)c1 | 2.92
N#Cc1cccc(NC(=O)c2ccc(S(=O)(=O)N3CCOCC3)cc2)c1 | 0.709
CCC(C)NC(=O)CCC(=O)Nc1ccc2nc(N3CCOCC3)cc(C)c2c1 (stereo not drawn) | 5.35
CCc1noc(C)c1C(=O)OCC(=O)c1ccc(OC)c(OC)c1 | -2.05
CCOC(=O)COC(=O)c1ccc(O)cc1 | 1.8
COc1cccc(NC(=O)c2ccc3nc(C)sc3c2)c1 | 16.3
CC1CSc2n(-c3cccc(C(F)(F)F)c3)cc(-c3ccccc3)[n+]21.[Br-] (stereo not drawn) | -1.57
COc1ccc(N(C(=O)CNC(=O)c2ccco2)C(C(=O)NC2CCCC2)c2cccnc2)cc1 (stereo not drawn) | 13.4
CCCN(CC(=O)Nc1ccccc1OC)C(C)C(=O)NC(C)CCc1ccccc1 (stereo not drawn) | 9.31
CCOC(=O)CNC(=O)C1CCCN(c2ncccn2)C1 (stereo not drawn) | 14.6
C=CCOc1ccc(CNC(C)(C)CO)cc1OCC.Cl | 7.42
Cc1ccc(NC(=S)c2nc3ccccc3[nH]2)c(C)c1 | 14.6
Cc1ccc(N=C2NC(=O)/C(=C/C=C/c3ccco3)S2)cc1 | 20.8

Structure (SMILES) | hERG current change (%, negative = inhibition) at 1uM [%]
COC(=O)COc1ccc(S(=O)(=O)N2CCN(c3ccccc3F)CC2)cc1 | 7.4
CCC1CC(C)(C(=O)Nc2ccc(S(N)(=O)=O)cc2)OC1=O (stereo not drawn) | 5.22
Cc1cc(C)n2ncc(S(=O)(=O)c3ccccc3)c2n1 | 11.8
N#Cc1ccccc1OCC(=O)OCC(=O)NCc1ccc2c(c1)OCO2 | 6.99
O=C(NCc1ccccc1)c1cccc(OCC(=O)N2CCN(C(=O)c3ccco3)CC2)c1 | -2.57
Cc1ccc(/C(O)=C/c2nc3cc(C)ccc3oc2=O)cc1 | 14.2
Clc1ccc(Nc2ncn[nH]2)cc1 | 16.2
CC12CCCCC1(O)[N+](=O)C1=C(CCCC1)N2[O-] (stereo not drawn) | 15.1
Cc1ccc(N(Cc2cc3ccccc3[nH]c2=O)C(=O)c2cccs2)cc1 | -0.954
Cc1n[nH]c(C)c1C(=O)CC1(O)C(=O)N(CCc2ccccc2)c2ccc(Cl)cc21 (stereo not drawn) | -1.42
Cc1ccc(S(=O)(=O)C2CS(=O)(=O)CC2O)cc1 (stereo not drawn) | 18.4
CCOC(=O)N1CCN(C(=O)COC(=O)c2ccccc2NCCO)CC1 | 9.6
O=C(O)CCC(=O)NNC(=O)c1cccs1 | 15.5
CCOc1ccc(N(C)C(=O)CCc2nnc3ccc(N4CCCC4)nn23)cc1 | 11
C=C(C)C1Cc2cc3ccc(=O)oc3cc2O1 (stereo not drawn) | -0.867
Cl.OCCNc1nc2ccccc2n1CCN1CCCCC1 | -10.1
COCc1cc(C2SCC(=O)Nc3c2c(=O)[nH]n3C(C)C)ccc1OC (stereo not drawn) | -0.346
Clc1nccc(NCc2ccccc2)n1 | 13.6
COc1ccc(N2CCN(C(=O)CN(Cc3ccc(Cl)cc3)S(C)(=O)=O)CC2)cc1 | 9.57

Structure (SMILES) | hERG current change (%, negative = inhibition) at 1uM [%]
CCOC(=O)c1ccc(NC(=O)CSc2nnc(COc3ccccc3OC)n2C)cc1 | 3.73
Cc1ccccc1NC(NC(=O)c1cccs1)C(Cl)(Cl)Cl (stereo not drawn) | 16.1
CC1(C)Cc2c(cnn2-c2cccc(F)c2)C(NC(=O)CSc2ccccn2)C1 (stereo not drawn) | 6.26
COc1ccc(-c2[nH]n(-c3ccc([N+](=O)[O-])cc3)c(=O)c2C=NCc2ccccc2)cc1 | 7.32
CN(Cc1ccccc1)C(=O)C1CCN(S(=O)(=O)c2cc([N+](=O)[O-])ccc2Cl)CC1 | -5.15
COCCCNC(=O)c1sc2ncn(CC(=O)Nc3ccc(C)c(Cl)c3)c(=O)c2c1C | 7.46
CCOC(=O)C1=C(C)N=c2s/c(=C/c3ccccc3)c(=O)n2C1c1ccc(OC)c(OC)c1 (stereo not drawn) | 11.4
O=C(CCS(=O)(=O)c1ccccc1)Nc1ccc(S(=O)(=O)Nc2ncccn2)cc1 | 16.7
CCCOc1ccc(/C=N/NC(=O)CSc2ccccn2)cc1OC | 12.1
O=[N+]([O-])c1ccc(N2CCNCC2)cc1NCc1cccnc1 | 6.58
CC(Oc1ccc2c3c(c(=O)oc2c1)CCC3)C(=O)NCCN1CCOCC1 (stereo not drawn) | 17.8
O=C(N/N=C/c1cccc([N+](=O)[O-])c1)C(=O)N1CCCCCC1 | -22
Cc1cc(C(=O)COC(=O)C23CC4CC(CC(O)(C4)C2)C3)c(C)n1-c1c(C)n(C)n(-c2ccccc2)c1=O | 10.6
CCOC(=O)c1nnn(-c2nonc2N)c1C | 5.7
NNC(=S)NC1CCCCCCCCCCC1 | -3.63
O=C(Cn1c(=O)oc2cc(S(=O)(=O)N3CCc4ccccc43)ccc21)N1CCCCC1 | 9.27
O=C1CC(c2cccc(Br)c2)C2=C(COC2=O)N1 (stereo not drawn) | 3.73
Cc1nnc(C)n1/N=C/c1cc(Br)ccc1O | 15.9
CN(NS(=O)(=O)c1ccc(Cl)cc1)c1cnn(C)c(=O)c1Cl | 15.8
